According to PubChem BioAssay AID504339 (National Center for Advancing Translational Sciences (NCATS), 2011):
The whole screen tested about 390,000 compounds, of which about 17,000 (4.4%) were called active. Inconclusive means that the source gave no clear call. Such entries were picked first, then a sample of the others. Calls follow the shape of the dose curve; as a rule, active = well fitted inhibition curve with a large enough effect; inconclusive = small, poorly fitted or top-dose-only effect; inactive = no such curve, though single readings can be large or run the other way. Potencies of inconclusive entries are doubtful fits and often do not repeat.

Target: Lysine-specific demethylase 4A (Homo sapiens) (UniProt O75164)
Assay: qHTS Assay for Inhibitors of JMJD2A-Tudor Domain; also: nearly all actives have a fitted effect of over 50% in size
Details: AlphaScreen JMJD2A-Tudor / H3K4me3 peptide binding; activity change, negative = inhibition: at 114 µM (top of the series)
% is scaled to controls: 0 for no effect and ±100 for the full control effect; potency is read from the fitted curve at half-maximal effect; tags tell the direction and shape of the fitted curve.

Chain of UniProt O75164 (O75164 whole entry, looked up, the tested form may be a part): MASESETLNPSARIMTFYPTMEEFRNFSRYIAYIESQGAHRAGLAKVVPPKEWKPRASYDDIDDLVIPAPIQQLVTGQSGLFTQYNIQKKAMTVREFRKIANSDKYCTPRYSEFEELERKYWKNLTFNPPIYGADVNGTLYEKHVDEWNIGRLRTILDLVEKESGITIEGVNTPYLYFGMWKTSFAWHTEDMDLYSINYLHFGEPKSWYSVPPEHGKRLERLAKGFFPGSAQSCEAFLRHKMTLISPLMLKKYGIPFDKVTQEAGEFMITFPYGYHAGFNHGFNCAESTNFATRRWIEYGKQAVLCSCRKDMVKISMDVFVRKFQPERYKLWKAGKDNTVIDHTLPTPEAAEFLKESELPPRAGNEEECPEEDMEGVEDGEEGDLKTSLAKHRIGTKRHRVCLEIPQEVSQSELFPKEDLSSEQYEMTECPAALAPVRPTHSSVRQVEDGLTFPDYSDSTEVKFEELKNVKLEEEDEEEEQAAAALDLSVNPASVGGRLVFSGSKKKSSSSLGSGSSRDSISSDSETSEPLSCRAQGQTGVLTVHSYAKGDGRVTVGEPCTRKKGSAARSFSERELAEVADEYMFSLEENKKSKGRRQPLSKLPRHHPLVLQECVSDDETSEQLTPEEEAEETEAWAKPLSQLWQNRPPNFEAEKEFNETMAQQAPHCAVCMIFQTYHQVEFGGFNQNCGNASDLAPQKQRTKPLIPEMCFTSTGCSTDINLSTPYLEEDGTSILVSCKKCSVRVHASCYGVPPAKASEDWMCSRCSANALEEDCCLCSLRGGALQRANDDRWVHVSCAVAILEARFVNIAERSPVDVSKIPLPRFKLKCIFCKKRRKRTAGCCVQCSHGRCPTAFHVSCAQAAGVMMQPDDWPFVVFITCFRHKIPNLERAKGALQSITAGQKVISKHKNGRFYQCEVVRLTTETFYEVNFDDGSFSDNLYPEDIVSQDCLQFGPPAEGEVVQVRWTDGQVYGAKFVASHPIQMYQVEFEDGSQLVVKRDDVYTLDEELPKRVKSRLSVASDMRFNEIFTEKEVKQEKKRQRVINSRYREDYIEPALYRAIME

| SMILES | Potency | activity change, negative = inhibition |
| --- | --- | --- |
| O=C(O)CCN1/C(=C/C=Nc2ccccc2)Oc2ccccc21 | active: 56.2 µM |  |
| Cc1ccc2cccc(OCC(=O)N3CC(C)CC(C)C3)c2n1 (stereo not drawn) | inactive |  |
| NNc1ccc2nncn2n1 | inactive |  |
| Cc1cccc(CN2CCN(C(=O)c3cccc4ccccc34)CC2)c1 | active: 2.24 µM |  |
| COc1cccc(CNC(=O)CCc2c(C)c3cc4c(C)coc4c(C)c3oc2=O)c1 | inconclusive: 70.8 µM [inhibitor, partial curve, poor fit] |  |
| Cc1ccc(NC(=O)CN(C)C(=O)c2cccc(-n3cccc3)c2)cc1 |  | inconclusive: -101% [inhibitor] |
| COc1ccc(C(CCNCc2ccc(N(C)C)cc2)c2ccccc2)cc1 (stereo not drawn) | active: 25.1 µM |  |
| CCc1cccc(C)c1NC(=S)NCc1ccc2[nH]c(C)cc2c1 | inconclusive: 50.1 µM [inhibitor, partial curve] |  |
| COc1ccc(NC(=O)NNC(=O)c2ccc3ccccc3c2O)cc1OC | inactive |  |
| O=C1c2ccccc2C(=O)c2c1oc(C(F)(F)F)c2C(=O)c1ccccc1 | inconclusive: 11.2 µM [inhibitor, full curve] |  |
| CC1CC(=O)NN1C(=O)c1ccccc1 (stereo not drawn) | active: 28.2 µM |  |
| CCOC(=O)c1c(NC(=O)CSc2nnc(C)s2)sc2c1CCN(C)C2 | inconclusive: 79.4 µM [inhibitor, single point] |  |
| O=C(NNc1ccc(O)cc1)c1ccc(Br)cc1 | inconclusive: 100 µM [inhibitor, partial curve] |  |
| Cc1cc(N2CCN(C)CC2)nc2ccc(NC(=O)c3ccc(Br)o3)cc12 | inactive |  |
| Cc1cc(-c2nnc(SCC(=O)Nc3ccc(C)c(C)c3)n2N)n[nH]1 | inactive |  |
| CCn1c(C)c(C)c2cc(C(=O)NCc3cccc(C)c3)ccc21 | inconclusive: 20 µM [inhibitor, full curve] |  |
| Cc1cccc(N2CCN(c3nc4ccc(C)cc4n4cnnc34)CC2C)c1 (stereo not drawn) | inconclusive: 15.8 µM [inhibitor, full curve, poor fit] |  |
| O=C(Nc1cccc(C(F)(F)F)c1)c1n[nH]c(Cn2cncn2)n1 | inconclusive: 25.1 µM [inhibitor, full curve] |  |
| O=C(N/N=C/c1c(O)ccc2ccccc12)c1ccc(Br)o1 | inconclusive: 39.8 µM [inhibitor, full curve, poor fit] |  |
| COc1ccc(N2CCN(C(=O)CSc3nc4cc(OC)c(OC)cc4cc3C#N)CC2)cc1 | active: 56.2 µM |  |
| CC(=O)NC1C(=O)N(CCN2CCOCC2)c2ccc(Cl)cc21 (stereo not drawn) | active: 12.6 µM |  |
| Cc1cc(C)c(S(=O)(=O)/N=C2\C=CC(=O)C(Cl)=C2)c(C)c1 | active: 31.6 µM |  |
| CN(CCOc1ccc(Cl)cc1)C(=O)CNS(=O)(=O)c1ccc(N(C)C)c([N+](=O)[O-])c1 |  | inconclusive: -42.1% [inhibitor] |
| CC1(C)Cc2ccccc2/C(=C/C(=O)N2CCCCCC2)N1 | inconclusive: 44.7 µM [inhibitor, partial curve] |  |

| SMILES | Potency | activity change, negative = inhibition |
| --- | --- | --- |
| CCCCn1c(-c2ccco2)n[nH]c1=S | active: 3.16 µM |  |
| CSc1nc(=NC(C)=O)ss1 | active: 31.6 µM |  |
| COc1ccc(N2CCN(C(=O)c3cc(S(=O)(=O)N4CCC(C)CC4)cn3C)CC2)cc1 | inconclusive: 56.2 µM [inhibitor, partial curve] |  |
| CCOc1ccc(-c2n[nH]c(=S)n2Cc2ccccc2)cc1 | active: 44.7 µM |  |
| NC(=N\N=Cc1ccco1)/C(N)=N/N=Cc1ccco1 | inconclusive: 44.7 µM [inhibitor, partial curve] |  |
| COc1ccc(CN2C(=O)C(Cc3ccccc3)Nc3ncnc(N4CCN(c5ccccc5)CC4)c32)cc1 (stereo not drawn) | inconclusive: 11.2 µM [inhibitor, full curve, poor fit] |  |
| O=C(NN1C(=O)/C(=C/c2ccc(O)cc2)SC1=S)c1ccccc1O | active: 50.1 µM |  |
| CC(CCc1ccccc1)NC(=O)c1cncc(Br)c1 (stereo not drawn) | inconclusive: 100 µM [inhibitor, single point] |  |
| Cc1ccc(NC(=O)CN2C(=O)C3(SCC(=O)N3c3ccc(F)c(F)c3)c3ccccc32)c(C)c1 (stereo not drawn) | inactive |  |
| O=C(Nc1ccccc1[N+](=O)[O-])c1cncc(Br)c1 | inconclusive: 25.1 µM [inhibitor, partial curve, poor fit] |  |
| Cc1cc(=O)n(CCc2ccccc2)c(O)c1C#N | inconclusive: 79.4 µM [inhibitor, partial curve] |  |
| O=C(Nc1ncc(S(=O)(=O)c2ccc([N+](=O)[O-])cc2)s1)c1ccccc1F | inconclusive: 14.1 µM [inhibitor, full curve, poor fit] |  |
| O=C(Nc1cccnc1)C1(c2ccc(Cl)cc2)CCCC1 | inactive |  |
| O=C(CC1SC(=Nc2ccccc2)N(Cc2ccccn2)C1=O)Nc1cccc(Cl)c1 (stereo not drawn) | inconclusive: 25.1 µM [inhibitor, single point] |  |
| O=C(C1CCCN(c2ncnc3c2nc2n3CCCCC2)C1)N1CCN(c2ccc(Cl)cc2)CC1 (stereo not drawn) | inconclusive: 35.5 µM [inhibitor, partial curve] |  |
| CCOC(=O)N1CCC(NC(=O)c2ccc3c(c2)N=C(C)c2ccccc2S3)CC1 | inconclusive: 25.1 µM [inhibitor, full curve] |  |
| COc1cc(/C=C(\C(=O)O)c2ccc(S(=O)(=O)N3CCCC3)s2)cc(OC)c1 | inactive |  |
| O=C(Nc1ccc(C(=O)N2CCN(c3ccccc3)CC2)cc1)C1=CSCCO1 | inconclusive: 56.2 µM [inhibitor, partial curve] |  |
| CCOc1cc(/C=N/Nc2nc(-c3cccs3)c(NC(C)=O)s2)ccc1O | active: 28.2 µM |  |
| CCOC(=O)CCCc1sc(N)nc1-c1[nH]c(=O)[nH]c1C | active: 2.24 µM |  |
| COc1ccc(Nc2ccc(N3C(=O)CC(C)C3=O)cc2[N+](=O)[O-])cc1OC (stereo not drawn) | inconclusive: 10 µM [inhibitor, full curve] |  |
| Cc1cn(C2OC(COC(=O)c3ccccc3)C(O)C2Cl)c(=O)[nH]c1=O (stereo not drawn) | inactive |  |
| CC(=O)/C(N=Nc1ccc(C(=O)O)cc1[N+](=O)[O-])=C(\C)O | inactive |  |
| NS(=O)(=O)c1ccc(NC(=O)CSC2CCCCC2)cc1 | active: 28.2 µM |  |
